The supplement of paper PMC3334620
Whole data set: some 33,000 sequences, median “E-score (-0.5 to 0.5)” near -0.041, cut for the highest 2% near 0.37. Some of the results follow.

target: T1, Ecm22 (UniProt Q05958); experiment: PBM E-score (8-mer binding enrichment) (E-score (-0.5 to 0.5)); higher = stronger / more preferred TF binding; most listed sequences are background and not binding sites; settings: protein concentration: 200 nM; construct: GST-full length
T1 sequence: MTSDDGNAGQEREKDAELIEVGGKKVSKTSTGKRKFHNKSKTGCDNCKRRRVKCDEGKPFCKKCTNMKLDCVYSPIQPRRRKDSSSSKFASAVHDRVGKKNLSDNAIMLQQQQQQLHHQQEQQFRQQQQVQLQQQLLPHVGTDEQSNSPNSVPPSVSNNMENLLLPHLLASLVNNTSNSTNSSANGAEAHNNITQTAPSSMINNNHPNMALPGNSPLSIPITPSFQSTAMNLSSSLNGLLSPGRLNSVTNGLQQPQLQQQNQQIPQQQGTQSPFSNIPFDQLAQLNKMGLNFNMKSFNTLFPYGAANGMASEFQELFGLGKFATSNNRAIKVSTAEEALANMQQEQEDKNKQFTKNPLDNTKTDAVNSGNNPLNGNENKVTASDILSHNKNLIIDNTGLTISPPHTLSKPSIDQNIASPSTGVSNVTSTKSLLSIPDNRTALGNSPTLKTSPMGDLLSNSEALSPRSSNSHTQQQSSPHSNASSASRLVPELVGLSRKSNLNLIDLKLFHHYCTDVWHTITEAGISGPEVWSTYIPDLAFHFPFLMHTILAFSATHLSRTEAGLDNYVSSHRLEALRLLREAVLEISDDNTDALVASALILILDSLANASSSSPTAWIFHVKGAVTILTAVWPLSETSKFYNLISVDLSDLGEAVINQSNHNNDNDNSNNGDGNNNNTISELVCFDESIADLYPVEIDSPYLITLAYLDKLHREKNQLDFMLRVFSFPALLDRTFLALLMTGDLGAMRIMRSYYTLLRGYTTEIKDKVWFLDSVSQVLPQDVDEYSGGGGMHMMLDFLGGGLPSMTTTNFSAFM
Summary of the method: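 Masliner-normalised scans of fluorescent anti-GST signal were the basis for scoring. That signal came from GST-tagged yeast transcription factors applied at about 100-200 nM to double-stranded universal all-10-mer Agilent arrays on fresh or once-stripped slides. Each ungapped eight-base word, pooled with its reverse complement, received an E-score from the Universal PBM Analysis Suite.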

Row | Sequence | PBM E-score
1 | CTCCGTAC | 0.386
2 | GTGAGTAA | -0.161
3 | ATTGATTA | 0.153
4 | GTATAATA | 0.366
5 | ATTAAATC | 0.0123
6 | GTCCTAAA | 0.156
7 | ACCGGGGG | -0.234
8 | ACGTCGCC | -0.0891
9 | TACAGGCA | 0.0853
10 | GTGTACAC | -0.0623
11 | CGTGTTAC | 0.176
12 | AGGGCATA | -0.124
13 | AACGGGAT | 0.296
14 | CTACGCCC | -0.133
15 | CTATAAAC | 0.182
16 | TAGTTCGA | -0.0786
17 | ACCCTTTG | -0.197
18 | CCACCAGG | -0.142
19 | AGTAGGGC | -0.116
20 | CGTTTTAC | 0.27
21 | CAAAGTCG | 0.109
22 | AGTGGTAG | -0.256
23 | ATTGTGCC | -0.251
24 | GCGCGAAC | 0.161
25 | ATGGTAGG | -0.21

Row | Sequence | PBM E-score
26 | CTAGATTA | 0.0455
27 | CAGTACGA | 0.423
28 | TCCAACGA | 0.00088
29 | ACCGAAAC | 0.186
30 | CTTAGGGC | -0.18
31 | GGATCTCA | -0.208
32 | CGTGATAC | 0.117
33 | AATGCGGC | 0.0713
34 | GTATGGGA | 0.0697
35 | ATTTGACG | 0.12
36 | CCTCCCTC | 0.0625
37 | GCAACTCC | -0.282
38 | GAACCCAA | 0.0131
39 | ATCAGATG | -0.142
40 | ACCTGCAC | -0.038
41 | GGGGGAAC | 0.121
42 | CATATCGC | 0.153
43 | GGTTACAC | 0.0466
44 | GAAATTGC | 0.0049
45 | CCCGAGAC | 0.181
46 | AAACCACG | -0.0695
47 | AGGACTGA | -0.23
48 | AGTCATTA | -0.199
49 | CGCTAAGC | 0.119
50 | ACAGAGAC | -0.00787

Row | Sequence | PBM E-score
51 | ACACTCGC | 0.192
52 | CGGTGGTA | 0.0967
53 | GTAGGTCA | -0.0922
54 | GACATCCA | -0.135
55 | GAGTTGGA | -0.213
56 | GAGGCAGC | -0.313
57 | GCCAATCA | -0.144
58 | GACCGGAC | 0.172
59 | CTCTAATC | -0.0922
60 | CACGAGTC | -0.0272
61 | ACCTTCGC | 0.143
62 | CAGCGGAG | -0.0191
63 | CAACAGCA | -0.216
64 | CAAACGAG | 0.463
65 | AATCATAG | -0.262
66 | ATATTGAA | 0.0933
67 | CTAGTGAA | -0.122
68 | ACCCAAAC | 0.0384
69 | ATGTCTTC | -0.27
70 | CCAGGGAC | -0.217
71 | ATCCCCAC | -0.126
72 | ATTAAGGA | -0.131
73 | ATTCTTTG | -0.212
74 | GCTGATGA | -0.13
75 | GCCATTCA | -0.143

Row | Sequence | PBM E-score
76 | AGCTGCGA | 0.0231
77 | ACGAAGCG | 0.317
78 | CAGGTCCA | -0.167
79 | CTTGCGCC | -0.0722
80 | CACCACTG | -0.067
81 | CCGACTAC | 0.0341
82 | ATCGACGA | -0.00044
83 | AGCGCCCT | -0.116
84 | AAGAGGCC | -0.11
85 | GTTCGTGA | 0.141
86 | CAAAGTGG | -0.197
87 | AGTACGTA | 0.283
88 | GGTAGACC | 0.00782
89 | GACCGACC | 0.188
90 | GTGACCGA | 0.176
91 | GTTTTGTA | 0.18
92 | GACGCGAC | 0.0286
93 | CTCTTGAC | -0.0432
94 | CTCCCTTC | -0.245
95 | AACGGGTC | 0.163
96 | AGCAAGAT | -0.0406
97 | AGCGGTCA | -0.179
98 | TCTATTCA | 0.0404
99 | CATTCGGC | -0.0765
100 | GGCTGACA | -0.144

Row | Sequence | PBM E-score
101 | TACTTCTA | -0.0166
102 | AATACAGA | -0.0653
103 | ACGAGAGG | 0.362
104 | CGTACATA | 0.414
105 | AAGCCGAG | 0.0901
106 | ACCCGACT | 0.1
107 | GCGAATCC | 0.209
108 | AACTATCA | 0.137
109 | GTATTACA | 0.142
110 | CTGCGCGC | 0.17
111 | CGGTGCCA | -0.206
112 | AAAGGTGG | -0.179
113 | ACGGCCTA | 0.219
114 | ACGATTAA | 0.308
115 | ACTCAGAT | -0.113
116 | ACCTGAGC | -0.0674
117 | AGATGGCA | 0.0424
118 | TCCGCGCA | 0.0162
119 | GTTCAGAA | 0.174
120 | AATTACCG | 0.231
121 | AACATTCG | 0.0929
122 | AACAAGAA | -0.103
123 | AGTGGATG | 0.0301
124 | ACAGACCC | -0.0656
125 | TACCTGAA | 0.0384

Row | Sequence | PBM E-score
126 | AAAGCCCG | 0.0235
127 | GGTACCAC | -0.137
128 | ATTTGGCG | 0.114
129 | AGACTCGA | -0.114
130 | CTCGGCTA | 0.164
131 | CTCTGGAC | -0.0989
132 | GCATAAGA | -0.0193
133 | ATAGTACC | 0.00552
134 | ATTGCCAG | -0.0635
135 | AATACCAC | -0.0274
136 | AAATTTTG | -0.213
137 | AATTTCGG | 0.052
138 | ACTGTCCT | -0.0726
139 | AAGTCAGC | 0.0129
140 | AGCACTGC | -0.141
141 | GCTTCTCC | -0.0844
142 | CTGGTACC | -0.16
143 | TTCGCCAA | 0.0928
144 | CATCGGCG | -0.154
145 | ACAGTGAC | -0.109
146 | ATGCGGAC | 0.109
147 | CGTCAATA | -0.146
148 | ACACTCTG | 0.0047
149 | CCGCCACC | -0.209
150 | ACTCTGCG | 0.0804

Row | Sequence | PBM E-score
151 | ATAGCGCG | 0.158
152 | CTAATCCA | -0.2
153 | CAGAACCG | 0.0537
154 | GAACTATC | -0.00715
155 | TAGCCCAA | -0.239
156 | GTGCACAC | -0.141
157 | CAACAAAC | 0.0891
158 | AGCTGTGG | -0.264
159 | GACTTCGC | 0.232
160 | CGCTGTTC | -0.014
161 | CTGTTTGA | -0.0529
162 | AATGTAGG | -0.269
163 | AGTCCCTG | -0.206
164 | CCCTAGAC | -0.275
165 | AGTTTTAA | -0.0552
166 | AGGCTACG | 0.164
167 | ACCGAACG | 0.282
168 | GCGCGAAA | -0.00591
169 | GTAAAAAC | 0.174
170 | GCTCGGAA | 0.225
171 | CCTAAACG | 0.407
172 | GCTCCCTA | -0.0796
